Data as given in PubChem BioAssay AID686979 (National Center for Advancing Translational Sciences (NCATS), 2013).
The whole screen tested about 420,000 compounds, of which about 50,000 (12%) were called active. Inconclusive means that the source gave no clear call. Such entries were picked first, then a sample of the others. Calls follow the shape of the dose curve; as a rule, active = well fitted inhibition curve with a large enough effect; inconclusive = small, poorly fitted or top-dose-only effect; inactive = flat fitted curve, though single readings scatter. No potency is given beside an inconclusive call; the fits are too rough.

assay: qHTS for Inhibitors of human tyrosyl-DNA phosphodiesterase 1 (TDP1): qHTS in cells in presence of CPT; details: chicken DT40 Tdp1-/-;hTDP1 cells + 20 nM CPT, ATP luminescence, 48 h; activity change, negative = growth inhibition: at 46.2 µM (top of the series) unless noted; also: nearly all actives have a fitted effect of over 55% in size
Outline: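 Chicken DT40 Tdp1-/- cells complemented with human TDP1, 400 cells/well, exposed to compounds plus 20 nM camptothecin for at least 48 h at 37 C; viability read as ATP content by CellTiter-Glo luminescence.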
% is scaled to controls: 0 for no effect and ±100 for the full control effect; potency is read from the fitted curve at half-maximal effect; tags tell the direction and shape of the fitted curve.

| SMILES | Potency | activity change, negative = growth inhibition |
| --- | --- | --- |
| O=c1[nH]cnc2sc3c(c12)CN(Cc1ccccc1)CC3 | inconclusive [inhibitor, single point] | – |
| COc1cc(NC(=O)c2nnn(CC(=O)Nc3ccccc3)c2N)cc(OC)c1 | inactive | – |
| Cc1ccc(SC[C@H](Cc2ccccc2)N2CCN(CCc3ccccc3)CCC2=O)cc1 | inconclusive [inhibitor, single point] | – |
| COc1cc(C=O)c(Br)cc1OC1CCCC1 | inactive | – |
| CC(=O)Oc1oc(-c2ccccc2)nc1/C=N/c1ccccn1 | active: 16.4 µM | – |
| COc1cccc(CN2CCC2(C)C(=O)Nc2ccc(Cl)c(Cl)c2)c1F (centres undefined) | active: 20.6 µM | – |
| Cc1ccc2nc(-c3cccnc3)cc(C(=O)Nc3ccc(F)cc3C)c2c1 | inconclusive [inhibitor, single point] | – |
| CC(C)(C)c1ccc(S(=O)(=O)NC(=O)C2(C)CCN2C(=O)C2CC2)cc1 (centres undefined) | inactive | – |
| COc1ccc(S(=O)(=O)N2C3CCC2CC(NC(=O)NC2CCCCC2)C3)cc1 (centres undefined) | inconclusive [inhibitor, single point] | – |
| COc1ccc(N2CCCC2)c(NC(=O)COc2ccccc2Cl)c1 | inconclusive [inhibitor, single point] | – |
| NS(=O)(=O)c1ccc(N2CCOCC2)c(C(=O)NCc2ccc3c(c2)OCO3)c1 | inconclusive [inhibitor, single point] | – |
| Cc1cc2oc(=O)ccc2cc1[N+](=O)[O-] | inactive | – |
| COc1cc(C2CC(=O)Oc3cc(C)c(Cl)c(C)c32)cc(OC)c1OC (centres undefined) | inconclusive [inhibitor, partial curve] | – |
| COc1ccc(NC(=O)c2nnn(CC(=O)Nc3ccc4c(c3)OCO4)c2N)c(OC)c1 | inactive | – |
| COc1cc(NC(=O)c2cccs2)ccc1NC(=O)Cc1ccccc1 | inactive | – |
| O=c1[nH]c(SCc2cccc(Cl)c2)nc2ccccc12 | inconclusive [inhibitor, single point] | – |
| CCS(=O)(=O)N1CCCC(c2nc(-c3cccc(OC)c3)no2)C1 (centres undefined) | inactive | – |
| COc1ccc(N)cc1NC(=O)CN1CCOCC1 | inactive | – |
| CC(C)(C)CN1C(N)=NC[C@@H]1Cc1ccccc1 | inactive | – |
| CCC(C)[C@H](NC(=O)N1c2ccccc2NC(=O)[C@@H]1C(C)C)C(=O)N[C@@H](Cc1ccccc1)C(=O)O (some centres undefined) | inactive | – |
| O=C(CSc1nnc(COc2ccc(Cl)cc2)o1)NC1CC2CCC1C2 (centres undefined) | inactive | – |
| CC(C)CCN(C)C1CCN(C(=O)Nc2c(F)cccc2F)CC1 | inactive | – |
| CC(=O)c1ccc(OCCCC(=O)N2CCN(S(=O)(=O)c3ccc(C)cc3C)CC2)cc1 | inconclusive [inhibitor, single point] | – |
| CCN1C(=O)[C@@H]2[C@@H](c3ccc(-c4ccccc4)cc3)N3CCC[C@@]3(C(=O)OC)[C@@H]2C1=O | active: 20.6 µM | – |
| O=Cc1ccc2oc3nc4n(c(=O)c3c(=O)c2c1)CCCS4 | inactive | – |

| SMILES | Potency | activity change, negative = growth inhibition |
| --- | --- | --- |
| COc1cc(NC(=O)CCS(=O)(=O)c2nc(-c3cccs3)cc(C(F)(F)F)n2)cc(OC)c1OC | active: 4.11 µM | – |
| CCOC(=O)C1CCN(C(=O)c2oc3ccc4c(c3c2C)C(O)CC2(CCCCC2)O4)CC1 (centres undefined) | inconclusive [inhibitor, single point] | – |
| COc1ccccc1-c1noc(CSc2nc3ccc(C)cc3[nH]2)n1 | inconclusive [inhibitor, single point] | – |
| O=C(CSc1cn(CC(=O)N2CCCCC2)c2ccccc12)Nc1ccccc1F | inconclusive [inhibitor, single point] | – |
| COc1ccc(/C=N/NC(=O)c2ccc(Br)cc2)cc1Cn1cc(Cl)cn1 | inconclusive [inhibitor, single point] | – |
| Cn1cc(S(=O)(=O)NC2CCCC2)c(=O)n(C)c1=O | inactive | – |
| c1ccc2c(c1)oc1c(NCc3ccc4c(c3)OCO4)ncnc12 | inconclusive [inhibitor, single point] | – |
| CC(CNC(=O)C1CCN(Cc2cc3ccccc3n2Cc2ccccc2)CC1)c1ccccc1 (centres undefined) | active: 23.1 µM | – |
| Cc1cc(C)nc(N2CCCC(C(=O)NCCc3ccccc3F)C2)n1 (centres undefined) | inconclusive [inhibitor, full curve] | – |
| CCCn1c(=S)[nH]c2ccccc2c1=O | inactive | – |
| O=C(NCC(c1cccnc1)N1CCN(c2ccc(F)cc2)CC1)c1ccco1 (centres undefined) | inconclusive [inhibitor, partial curve, poor fit] | – |
| COc1ccccc1C(=O)Nc1nc2cc3c(cc2s1)OCCO3 | active: 5.8 µM | – |
| CCCCCOc1ccc(C(=O)N(Cc2ccco2)C2CCS(=O)(=O)C2)cc1 (centres undefined) | inconclusive [inhibitor, single point] | – |
| O=C(CC1CCCC1)NCCS(=O)(=O)N1CCN(c2ccccc2)CC1 | inconclusive [inhibitor, single point] | – |
| C=CC(C1=CC(=O)C(OC)=CC1=O)c1ccc(OC)cc1 (centres undefined) | active: 3.26 µM | – |
| Cc1c(Cl)cccc1NC(=O)CCn1c(=O)c2cccn2c2ccccc21 | inconclusive [inhibitor, single point] | – |
| COc1ccc(N=C2C(=Nc3ccc(OC)cc3)N(c3ccc(OC)cc3)C(=S)N2C)cc1 | – | inconclusive: -34.1% [inhibitor] |
| COc1ccccc1N(CC(=O)Nc1ccc(C)cc1Cl)S(=O)(=O)c1cccs1 | inconclusive [inhibitor, single point] | – |
| COc1ccc(NC(=O)CN(C)C(=O)c2cccc(S(=O)(=O)N3CCN(c4ccccc4)CC3)c2)cc1 | active: 18.4 µM | – |
| CCOC(=O)c1c(NC(=O)COC(=O)CC(NC(C)=O)c2ccccc2)sc(C(=O)NC)c1C (centres undefined) | inactive | – |
| CCOC(=O)CSc1nc(=O)n2ccccc2n1 | inactive | – |
| COc1ccccc1/C=N/NC(=O)C(=O)Nc1ccccc1OC(F)(F)C(F)F | inconclusive [inhibitor, single point] | – |
| CCOc1ccccc1NC(=O)CSc1nccn1-c1ccc(Cl)cc1 | inactive | – |
| CC(NC(=O)COc1ccccc1)C(c1ccccc1)N1CCN(C)CC1 (centres undefined) | inconclusive [inhibitor, partial curve] | – |
